{"source": "the supplement of paper PMC11417369", "note": "± gives the standard deviation of the averaged measurements. Some of the results follow.", "data": [{"system": "PfAP2-I AP2 domain 3 (GST-tagged)", "assay": "gcPBM binding intensity (ln(normalized median fluorescence intensity)); higher = stronger DNA binding", "how_it_was_run": "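An Agilent 4 × 180k array carrying primer-extended double-stranded 36-bp intergenic genomic probes and negative controls received GST-tagged P. falciparum DNA-binding domains expressed in E. coli, about 25 μg on average, for 1 h. The binding buffer contained 1× PBS, 1% milk, 0.2 mg/ml BSA, 0.5% salmon testes DNA and 0.03% Triton X-100. Binding intensity is the top Masliner-normalised natural-log median intensity across replicate spots of either probe orientation, read after Alexa488 anti-GST antibody staining and a 488 nm scan.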", "values": [{"sequence": "ATTTATTAACCATATACACACATATATTTGTATTTA [CACACA_site6744]", "gcPBM binding intensity (ln)": "7.87 ± 0.59"}, {"sequence": "ATAGTATCTGGTAGCTGTACGAGTCGTAGAGTGCAG [XGTACX_site2020]", "gcPBM binding intensity (ln)": "8.3 ± 0.53"}, {"sequence": "TTCCCTAATATTTGTTGTACTTGTTATATTTTTTTT [XGTACX_site5994]", "gcPBM binding intensity (ln)": "8.17 ± 0.57"}, {"sequence": "TATATTTGTAAGAAGAGTACTAAAAAAAGAATAAAG [XGTACX_site8704]", "gcPBM binding intensity (ln)": "8.19 ± 0.67"}, {"sequence": "ATATATATATATATATGTACGTACTCAGTTATGCCT [XGTACX_site453]", "gcPBM binding intensity (ln)": "9.29 ± 0.32"}, {"sequence": "TTTATTTATTATTGTTGTACACTTTTTATAAAAAAA [XGTACX_site5114]", "gcPBM binding intensity (ln)": "8.29 ± 0.39"}, {"sequence": "ATGTATATAATATTATGTACATATATGAAATATTTT [XGTACX_site8168]", "gcPBM binding intensity (ln)": "7.66 ± 0.38"}, {"sequence": "ATAAGAAAAGGACACACACACAAAAAAAAAAAAAAA [CACACA_site7351]", "gcPBM binding intensity (ln)": "8.1 ± 0.38"}, {"sequence": "TGTTCTTATTTTATAAGCATATAATTAATCATAATG [CACACA_negctrl_site1493]", "gcPBM binding intensity (ln)": "7.44 ± 0.47"}, {"sequence": "TAGTTTTTTATAAAATTATTTATATAAAGGTAAAAA [CACACA_negctrl_site490]", "gcPBM binding intensity (ln)": "7.87 ± 0.52"}, {"sequence": "AATATATTATAATATACACACATATATGCTCTTTAA [CACACA_site4131]", "gcPBM binding intensity (ln)": "7.94 ± 0.58"}, {"sequence": "ATATATTATATATATTTTAAGTAATTTGCAAAAAAT [GTGCAC_negctrl_site361]", "gcPBM binding intensity (ln)": "7.81 ± 0.4"}, {"sequence": "ATTTAAAAGAAATAATGTACGAATCATATTTGATAT [XGTACX_site1785]", "gcPBM binding intensity (ln)": "7.71 ± 0.54"}, {"sequence": "GGAATACAGGAAAAAAGTACAGAAAATGGAATATTA [XGTACX_site5053]", "gcPBM binding intensity (ln)": "7.88 ± 0.61"}, {"sequence": "TTTAATTTGTTATACACACACAAAAAAAGTTATAAA [CACACA_site7779]", "gcPBM binding intensity (ln)": "7.79 ± 0.33"}, {"sequence": "TCTTTCTTATATTTATATAATTATATTTATTTTATA [GTGCAC_negctrl_site300]", "gcPBM binding intensity (ln)": "7.84 ± 0.66"}, {"sequence": "ATATAATGTTATAGAAGTACATGAAATACTTATTTA [XGTACX_site8850]", "gcPBM binding intensity (ln)": "7.45 ± 0.28"}, {"sequence": "AAAATAAAATAACGTTGTACAACATCATTTCTATAT [XGTACX_site5080]", "gcPBM binding intensity (ln)": "7.72 ± 0.42"}, {"sequence": "AACAATATATTGAATAGTACATATATATAAACATAT [XGTACX_site2811]", "gcPBM binding intensity (ln)": "7.62 ± 0.45"}, {"sequence": "AACATTTATAAATATTGTACATATAGATTTATATAT [XGTACX_site2662]", "gcPBM binding intensity (ln)": "7.67 ± 0.44"}, {"sequence": "TGTTTAAAGGAAAAGGAGTAGTCTATTATATTATCT [CACACA_negctrl_site858]", "gcPBM binding intensity (ln)": "7.74 ± 0.48"}, {"sequence": "GTATCTCATTATTCGTGTACTAAACACATAAAAATA [XGTACX_site2262]", "gcPBM binding intensity (ln)": "8.51 ± 0.3"}, {"sequence": "ATCTATATCTATAATACACACTAAAGTAACAGAATA [CACACA_site7370]", "gcPBM binding intensity (ln)": "7.95 ± 0.42"}, {"sequence": "GATTTACAACACGAACGTACAGAACAAAAAGGAAAA [XGTACX_site6501]", "gcPBM binding intensity (ln)": "8.15 ± 0.58"}, {"sequence": "AATGTAAAAGTAAACACACACATATATATATACATA [CACACA_site2484]", "gcPBM binding intensity (ln)": "7.68 ± 0.54"}, {"sequence": "TATAAAAATAAAAAAAGTACACATAAAAATATATAT [XGTACX_site5189]", "gcPBM binding intensity (ln)": "8.14 ± 0.3"}, {"sequence": "CATATATACACATACACACACACACGGACACGCACA [CACACA_site6910]", "gcPBM binding intensity (ln)": "8.37 ± 0.35"}, {"sequence": "TATTGTATTTAATAAACACACAATATTAAAAATATA [CACACA_site4725]", "gcPBM binding intensity (ln)": "7.43 ± 0.33"}, {"sequence": "ATACACATATATGTGTGTACTCACCTTTTAATATGA [XGTACX_site4349]", "gcPBM binding intensity (ln)": "7.87 ± 0.27"}, {"sequence": "TATATATTCAAATGTGCATGTAAAAAAAAAAAAAAG [TGCATGCA_site126]", "gcPBM binding intensity (ln)": "8.58 ± 0.4"}, {"sequence": "ATAAAAAACTCAGAGCGTACATAATTTTTTCTATTT [XGTACX_site2803]", "gcPBM binding intensity (ln)": "7.64 ± 0.54"}, {"sequence": "TAACCATACATACATACACACACACCCACATATATA [CACACA_site8951]", "gcPBM binding intensity (ln)": "8.11 ± 0.18"}, {"sequence": "GGCATATATATATGCACACATACATAAATACATGTG [CACACA_site5999]", "gcPBM binding intensity (ln)": "9.54 ± 0.25"}, {"sequence": "AGACATTAATGAAGGTGTACATATATTTGACAGAAT [XGTACX_site655]", "gcPBM binding intensity (ln)": "8.34 ± 0.68"}, {"sequence": "TCCCTAGTATACCTTAGTACATATATTATTTTGCAC [XGTACX_site2174]", "gcPBM binding intensity (ln)": "10.4 ± 0.66"}, {"sequence": "CAGGAGAGTAAAAGAGTGCGAATTATTATTTTGGAG", "gcPBM binding intensity (ln)": "8.63 ± 0.22"}, {"sequence": "TCATTCATATGTTACACACACACACGCACATAAAAA [CACACA_site7514]", "gcPBM binding intensity (ln)": "8.59 ± 0.22"}, {"sequence": "TATATAATATAATTGACATGCAACCATTTTCGTGAA [TGCATGCA_site458]", "gcPBM binding intensity (ln)": "7.64 ± 0.59"}, {"sequence": "AAGTTGGAAAGGTTATGTACTTATTTTTTAAAATAA [XGTACX_site204]", "gcPBM binding intensity (ln)": "7.71 ± 0.36"}, {"sequence": "TATTTTTATTTAGGACGTACAAAAATAAATCATATT [XGTACX_site1448]", "gcPBM binding intensity (ln)": "8.01 ± 0.35"}, {"sequence": "TTAAAAATATATATAACACACACATAATATATATAT [CACACA_site8811]", "gcPBM binding intensity (ln)": "8.93 ± 0.33"}, {"sequence": "TTTTTTTTTCCCGTAAATATTGAGACAACCATAATG [CACACA_negctrl_site41]", "gcPBM binding intensity (ln)": "7.86 ± 0.61"}, {"sequence": "TTAGAAACATTGAAAGCATGCAATATTACTTTATAC [TGCATGCA_site522]", "gcPBM binding intensity (ln)": "7.75 ± 0.6"}, {"sequence": "TCCTTATATTTGCACACACACACAAGAAAATGAAAA [CACACA_site6613]", "gcPBM binding intensity (ln)": "10.3 ± 0.54"}]}]}
